Reference: PMC10466050, “A comparative study of human and zebrafish glucocorticoid receptor activities of natural and pharmaceutical steroids” (Frontiers in Endocrinology, 2023)
Several values for one entry are separate records, joined by “and”; a condition that tells them apart may be missing. Equal values may be shown once.

Experiments:
[1] = biological target: T1, zfGR (Danio rerio, UniProt Q1XHK0); experiment: In vitro transactivation assay (agonism), UMLN-zfGR reporter cells; conditions: for REP (relative potency): UMLN-zfGR, ratio of EC50 values, DEX set at 1
[2] = biological target: T1, zfGR; experiment: Antagonistic activity assessment in presence of 3 nM dexamethasone, UMLN-zfGR cells; type: cell-based, zebrafish; conditions: for antagonist activity (in words): UMLN-zfGR cells, with dexamethasone 3 nM
[3] = biological target: T1, zfGR; experiment: Transactivation assay in zebrafish liver ZFL-zfGR pool cells; type: cell-based; conditions: for agonist activity (in words): ZFL-zfGR pool cells
Description: The transfected cells were treated 7 days with G418 and puromycin but not cloned.
The different reporter cell lines used in this study are summarized in the Supplementary Table 1 .

[4] = biological target: T2, hGR (Homo sapiens, UniProt P04150); experiment: In vitro transactivation assay (agonism), HMLN-hGR reporter cells; conditions: for % max act (maximal activity) / REP (relative potency): HMLN-hGR; for % max act (maximal activity): % of maximal luciferase activity induced by 100 nM dexamethasone, at 10^-5M (10^-6M for bimedrazole, cortivazol, dexamethasone); for REP (relative potency): ratio of EC50 values, DEX set at 1; for agonist activity (in words): HMLN-hGR cells
T2 sequence (P04150 1-777): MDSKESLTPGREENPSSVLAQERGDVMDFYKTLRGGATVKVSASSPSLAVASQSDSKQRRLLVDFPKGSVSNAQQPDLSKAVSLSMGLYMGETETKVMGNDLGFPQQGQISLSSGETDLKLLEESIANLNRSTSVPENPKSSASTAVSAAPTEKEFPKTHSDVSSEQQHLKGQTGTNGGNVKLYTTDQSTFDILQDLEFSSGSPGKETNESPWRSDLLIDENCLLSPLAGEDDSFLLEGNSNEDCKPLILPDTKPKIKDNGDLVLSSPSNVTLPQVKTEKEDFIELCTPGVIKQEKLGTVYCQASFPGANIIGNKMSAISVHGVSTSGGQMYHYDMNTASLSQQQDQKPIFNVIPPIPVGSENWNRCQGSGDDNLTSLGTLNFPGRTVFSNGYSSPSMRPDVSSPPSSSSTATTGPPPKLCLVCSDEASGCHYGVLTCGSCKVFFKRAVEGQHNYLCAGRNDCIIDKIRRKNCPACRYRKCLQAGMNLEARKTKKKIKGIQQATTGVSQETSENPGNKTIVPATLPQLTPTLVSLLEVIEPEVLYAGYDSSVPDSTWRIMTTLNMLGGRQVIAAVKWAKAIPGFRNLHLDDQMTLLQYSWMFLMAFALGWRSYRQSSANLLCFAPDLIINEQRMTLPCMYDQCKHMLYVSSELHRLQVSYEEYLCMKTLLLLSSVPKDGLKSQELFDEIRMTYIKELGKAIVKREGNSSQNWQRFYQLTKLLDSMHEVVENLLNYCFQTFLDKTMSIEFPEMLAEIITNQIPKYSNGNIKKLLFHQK

[5] = biological target: T2, hGR; conditions: HMLN-hGR cells, with dexamethasone 3 nM

| SMILES | EC50 [1] [nM] | REP (relative potency) [1] | antagonist activity (in words) [2] | EC50 [3] [nM] | EC50 [4] [nM] | % max act (maximal activity) [4] | REP (relative potency) [4] | agonist activity (in words) [3] | agonist activity (in words) [4] | antagonist activity (in words) [5] | agonist activity (in words) ([1]; UMLN-zfGR cells) | IC50 ([2]; IC50, UMLN-zfGR cells, antagonistic activity, with 3 nM dexamethasone) |
| --- | --- | --- | --- | --- | --- | --- | --- | --- | --- | --- | --- | --- |
| CSCC(=O)C1C(C)CC2C3CCC4=CC(=O)C=CC4(C)C3(F)C(O)CC21C (stereo not drawn) [RU24782] | 1500 | 0.001 | partially repress dexamethasone-induced activity at sub-micromolar concentrations | 1940 | 21 | 130 ± 7% | 0.07 | – | – | – | – | – |
| CC1CC2C3CCC4=CC(=O)C=CC4(C)C3(F)C(O)CC2(C)C1C(=O)CC#N (stereo not drawn) [RU24858] | 743 | 0.003 | partially repress dexamethasone-induced activity at sub-micromolar concentrations | 1030 | 46 | 103 ± 6% | 0.03 | – | – | – | – | – |
| C[C@]12CCC(=O)C=C1CC[C@@H]1[C@@H]2[C@@H](O)C[C@]2(C=O)[C@@H](C(=O)CO)CC[C@@H]12 [aldosterone] | 1240 | 0.002 | – | – | 567 | 96% and 96 ± 5% | 0.002 | only slightly activated luciferase expression | fully agonist | – | – | – |
| CC1=CC2C(C(O)CC3(C)C2CC(C)C3(O)C(=O)CO)C2(C)Cc3cnn(-c4ccccc4)c3C=C12 (stereo not drawn) [bimedrazole] | 0.05 | – | – | – | – | – | – | – | – | – | – | – |
| C[C@]12CCC(=O)C=C1CC[C@@H]1[C@@H]2[C@@H](O)C[C@@]2(C)[C@H]1CC[C@]2(O)C(=O)CO [cortisol] | 15 | – | – | – | – | – | – | – | – | – | – | – |
| CC(=O)OCC(=O)[C@@]1(O)[C@H](C)C[C@H]2[C@@H]3C=C(C)C4=Cc5c(cnn5-c5ccccc5)C[C@]4(C)[C@H]3[C@@H](O)C[C@@]21C [cortivazol] | – | – | – | – | 0.18 | 97 ± 6% | 7.8 | – | – | – | – | – |
| CCOC1=CC2=C(C)CC3C(C(O)CC4(C)C3CC(C)C43OCOC34COCO4)C2(C)CC1 (stereo not drawn) [forbimenol] | – | – | – | – | 498 | 96 ± 12% | 0.003 | only slightly activated luciferase expression | – | – | – | – |
| CC#C[C@]1(O)CC[C@H]2[C@@H]3CCC4=CC(=O)CCC4=C3[C@@H](c3ccc(N(C)C)cc3)C[C@@]21C [mifepristone] | 10 | – | partial antagonist | – | – | – | – | – | partial agonist | partial antagonist | partial agonist | 10 to 40 nM and 37 nM |
